# Measurements as given in patent US20250326843A1 (published 2025).
# T1: cynomolgus monkey 4-1BB (cynomolgus monkey)
# T1 chain: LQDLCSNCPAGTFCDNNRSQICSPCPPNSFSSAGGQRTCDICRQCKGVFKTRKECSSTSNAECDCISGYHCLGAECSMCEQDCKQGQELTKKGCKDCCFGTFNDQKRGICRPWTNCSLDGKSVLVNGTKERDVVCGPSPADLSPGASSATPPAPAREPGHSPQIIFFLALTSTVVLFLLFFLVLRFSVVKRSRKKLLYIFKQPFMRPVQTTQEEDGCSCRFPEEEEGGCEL
# Target: T1, cynomolgus monkey 4-1BB
# Experiment: flow cytometry
row,EC50 [nM],Binder
1,2.63,B7-H4×4-1BB bispecific antibody PR004281 (bispecific antibody) light: EIVMTQSPATLSVSPGERATLSCRASQSISSNLGWYQQKPGQAPRLLIYGASTRATGIPARFSGSGSGTEFTLTISSLQSEDFAVYYCQQYQSWPPLTFGGGTKVEIKRTVAAPSVFIFPPSDEQLKSGTASVVCLLNNFYPREAKVQWKVDNALQSGNSQESVTEQDSKDSTYSLSSTLTLSKADYEKHKVYACEVTHQGLSSPVTKSFNRGEC heavy: QVQLVESGGGVVQPGRSLRLSCAASGFTFRSFGMHWVRQAPGKGLEWVAVISYDASNEYYADSVKGRFIISRDNSKDTLYLQMNSLRAGDTAVYYCAKGGGLRWYFAYWGQGTLVTVSSASTKGPSVFPLAPSSKSTSGGTAALGCLVKDYFPEPVTVSWNSGALTSGVHTFPAVLQSSGLYSLSSVVTVPSSSLGTQTYICNVNHKPSNTKVDKKV[human IgG1 Fc with changes not given here]EVQLLESGGGLVQPGGSLRLSCAASGFTFSNYAMSWFRQPPETGLKWVSSIDASGGDTYYADSVKGRFTISRDNSKNTLYLQMNSLRAEDTAVYYCAKEGSHGTDDSHYDVDVWGQGTTVTVSS
2,2.85,B7-H4×4-1BB bispecific antibody PR004282 (bispecific antibody) light: EIVMTQSPATLSVSPGERATLSCRASQSISSNLGWYQQKPGQAPRLLIYGASTRATGIPARFSGSGSGTEFTLTISSLQSEDFAVYYCQQYQSWPPLTFGGGTKVEIKRTVAAPSVFIFPPSDEQLKSGTASVVCLLNNFYPREAKVQWKVDNALQSGNSQESVTEQDSKDSTYSLSSTLTLSKADYEKHKVYACEVTHQGLSSPVTKSFNRGEC heavy: QVQLVESGGGVVQPGRSLRLSCAASGFTFRSFGMHWVRQAPGKGLEWVAVISYDASNEYYADSVKGRFIISRDNSKDTLYLQMNSLRAGDTAVYYCAKGGGLRWYFAYWGQGTLVTVSSASTKGPSVFPLAPSSKSTSGGTAALGCLVKDYFPEPVTVSWNSGALTSGVHTFPAVLQSSGLYSLSSVVTVPSSSLGTQTYICNVNHKPSNTKVDKKV[human IgG1 Fc with changes not given here]GGSGGSEVQLLESGGGLVQPGGSLRLSCAASGFTFSNYAMSWFRQPPETGLKWVSSIDASGGDTYYADSVKGRFTISRDNSKNTLYLQMNSLRAEDTAVYYCAKEGSHGTDDSHYDVDVWGQGTTVTVSS
